# Assay results published in PubChem BioAssay AID1461 (National Center for Advancing Translational Sciences (NCATS), 2008).
# The whole screen tested about 220,000 compounds, of which about 2,300 (1%) were called active. Inconclusive results, whose numbers are uncertain, are shown with a selection of clear calls. Calls follow the shape of the dose curve; as a rule, active = well fitted inhibition curve with a large enough effect; inconclusive = small, poorly fitted or top-dose-only effect, or effect the other way; inactive = no such curve, though single readings can be large or run the other way. Potencies of inconclusive entries are left out as doubtful fits.
# Molecular target: Neuropeptide S receptor (Homo sapiens) (UniProt Q6W5P4)
# Chain of UniProt Q6W5P4 (Q6W5P4 whole entry, looked up): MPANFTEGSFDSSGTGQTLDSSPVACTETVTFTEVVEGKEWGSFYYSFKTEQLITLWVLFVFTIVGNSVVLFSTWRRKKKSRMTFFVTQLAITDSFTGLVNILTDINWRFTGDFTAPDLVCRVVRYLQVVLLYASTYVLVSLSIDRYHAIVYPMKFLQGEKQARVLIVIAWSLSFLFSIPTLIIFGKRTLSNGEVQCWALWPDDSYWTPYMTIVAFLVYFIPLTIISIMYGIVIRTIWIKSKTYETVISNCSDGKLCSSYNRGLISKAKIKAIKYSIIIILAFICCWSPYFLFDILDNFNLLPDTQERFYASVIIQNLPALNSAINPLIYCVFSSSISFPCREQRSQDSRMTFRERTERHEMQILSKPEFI
# Assay: qHTS Assay for Antagonists of the Neuropeptide S Receptor: cAMP Signal Transduction; also: nearly all actives have a fitted effect of over 50% in size
# Details: CHO-NPSR cells, cAMP TR-FRET, antagonist mode; series mostly up to 38.3 µM
# Potency is read from the fitted curve at half-maximal effect; tags tell the direction and shape of the fitted curve.
row,Structure (SMILES),Potency
1,Cc1ccccc1NC(=S)NNc1ncc(C(F)(F)F)cc1Cl,inactive
2,O=C(NCc1ccc2c(c1)OCO2)c1ccc(COc2cc(Cl)ccc2Cl)o1,"inconclusive [inhibitor, single point]"
3,Fc1ccccc1N1CCN(C(c2cccs2)c2nnnn2CCc2ccccc2)CC1 (configuration not stated),"inconclusive [inhibitor, partial curve]"
4,COCCCN1C(=O)/C(=C/c2ccc(CNS(=O)(=O)c3ccccc3)o2)C(C(=O)OC)=C1C,inactive
5,Cc1cccc(OC(=O)n2c(=S)oc3cc(Cl)ccc32)c1,inactive
6,Cc1ccc(Nc2nnc(SCC(=O)c3ccc(Br)s3)s2)c(C)c1,inactive
7,COc1ccc(C(=O)Nc2nc(-c3ccccc3)c(C(C)=O)s2)c(OC)c1,"inconclusive [inhibitor, single point]"
8,CC1CCC/C(=C\Nc2ccc(C(=O)O)cc2)C1=O (configuration not stated),inactive
9,CN(C)S(=O)(=O)c1ccc(NC(=O)COC(=O)C2CC3CCCC(C2)C3=O)cc1 (configuration not stated),inactive
10,Cc1nc(/C(N)=N/OC(=O)c2ccccc2Cl)c(C(F)(F)F)o1,inactive
11,CCCc1cc(Nc2c(C)n(C)n(-c3ccccc3)c2=O)n2c(nc3ccccc32)c1C#N,"inconclusive [inhibitor, partial curve, poor fit]"
12,CCCn1nc(C(=O)Nc2cccc(C(=O)OC)c2)c2ccccc2c1=O,"inconclusive [inhibitor, partial curve, poor fit]"
13,CCCSc1nnc(CSc2nc3ccccc3s2)n1-c1ccccc1,"inconclusive [inhibitor, partial curve]"
14,COc1ccccc1N1CCN(c2ccc([N+](=O)[O-])cc2Cl)CC1,inactive
15,COc1cc(C)c(NC(=S)Nc2cccc(Cl)c2C)cc1OC,inactive
16,O=c1c(-c2ccco2)[n+]([O-])c2ccccc2n1OCc1ccccc1F,inactive
17,COc1c(F)c(F)c(C(=O)Nc2ccc3oc(-c4ccncc4)nc3c2)c(F)c1F,"inconclusive [inhibitor, single point]"
18,CCC(C(=O)Nc1cc(Cl)ccc1OC)c1ccccc1 (configuration not stated),"inconclusive [inhibitor, single point]"
19,Cc1ccc(S(C)(=O)=N/C=C2\C(=O)c3sccc3N(C)S2(=O)=O)cc1 (configuration not stated),inactive
20,Cc1ccc(-c2nc3cccnc3s2)cc1NC(=O)C1c2ccccc2Oc2ccccc21,"inconclusive [inhibitor, single point]"
21,CC1=NN(C(=O)c2csc(C(C)C)c2)C(O)(C(F)(F)F)C1 (configuration not stated),inactive
22,COC(=O)[C@@]1(Cc2ccc(F)cc2)[C@@H]2[C@@H](CC(=O)[C@H]2CC(=O)C(=O)N(C)C)CN1C(=O)c1ccccc1,inactive
